Data taken from the supplement of paper PMC8728848.
The other results are listed elsewhere or left out.

Legend:
Assay in all cases: glycan array binding signal (z-score within array); higher = stronger binding
Settings in all cases: glycan notation: IUPAC condensed, linker removed
[1] = target: Neu5Ac(a2-6)Gal(b1-4)GlcNAc(b1-2)Man(a1-6)[Gal(b1-4)GlcNAc(b1-2)Man(a1-3)]Man(b1-4)GlcNAc(b1-4)GlcNAc
In short: (§1)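 Columns mapping to the same glycan were averaged after glycan names were converted to IUPAC-condensed notation. The data come from 3228 arrays in the Consortium for Functional Glycomics database, limited to those with an available protein sequence. Binding is reported as a within-array Z-score averaged across arrays of one protein sequence and across linkers.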

[2] = target: Neu5Ac(a2-6)Gal(b1-4)GlcNAc(b1-2)Man(a1-6)[GlcNAc(b1-2)Man(a1-3)]Man(b1-4)GlcNAc(b1-4)GlcNAc
In short: as §1

[3] = target: Neu5Ac(a2-6)Gal(b1-4)GlcNAc(b1-2)Man(a1-6)[Man(a1-3)]Man(b1-4)GlcNAc(b1-4)GlcNAc
In short: as §1

[4] = target: Neu5Ac(a2-6)Gal(b1-4)GlcNAc(b1-2)[Neu5Ac(a2-6)Gal(b1-4)GlcNAc(b1-4)]Man(a1-3)[GlcNAc(b1-4)][Neu5Ac(a2-6)Gal(b1-4)GlcNAc(b1-2)[Neu5Ac(a2-6)Gal(b1-4)GlcNAc(b1-6)]Man(a1-6)]Man(b1-4)GlcNAc(b1-4)GlcNAc
In short: as §1

[5] = target: Neu5Ac(a2-6)Gal(b1-4)GlcNAc(b1-2)[Neu5Ac(a2-6)Gal(b1-4)GlcNAc(b1-4)]Man(a1-3)[GlcNAc(b1-4)][Neu5Ac(a2-6)Gal(b1-4)GlcNAc(b1-4)Man(a1-6)]Man(b1-4)GlcNAc(b1-4)GlcNAc
In short: as §1

[6] = target: Neu5Ac(a2-6)Gal(b1-4)GlcNAc(b1-2)[Neu5Ac(a2-6)Gal(b1-4)GlcNAc(b1-6)]Man(a1-6)[Neu5Ac(a2-6)Gal(b1-4)GlcNAc(b1-2)Man(a1-3)][GlcNAc(b1-4)]Man(b1-4)GlcNAc(b1-4)GlcNAc
In short: as §1

[7] = target: Neu5Ac(a2-6)Gal(b1-4)GlcNAc(b1-3)Gal(b1-3)GlcNAc
In short: as §1

[8] = target: Neu5Ac(a2-6)Gal(b1-4)GlcNAc(b1-3)Gal(b1-4)GlcNAc
In short: as §1

[9] = target: Neu5Ac(a2-6)Gal(b1-4)GlcNAc(b1-3)Gal(b1-4)GlcNAc(b1-2)Man(a1-3)[Neu5Ac(a2-6)Gal(b1-4)GlcNAc(b1-3)Gal(b1-4)GlcNAc(b1-2)Man(a1-6)]GalNAc
In short: as §1

[10] = target: Neu5Ac(a2-6)Gal(b1-4)GlcNAc(b1-3)Gal(b1-4)GlcNAc(b1-3)Gal(b1-4)GlcNAc
In short: as §1

[11] = target: Neu5Ac(a2-6)Gal(b1-4)GlcNAc(b1-3)Gal(b1-4)GlcNAc(b1-3)Gal(b1-4)GlcNAc(b1-2)Man(a1-3)[Neu5Ac(a2-6)Gal(b1-4)GlcNAc(b1-3)Gal(b1-4)GlcNAc(b1-3)Gal(b1-4)GlcNAc(b1-2)Man(a1-6)]GalNAc
In short: as §1

[12] = target: Neu5Ac(a2-6)Gal(b1-4)GlcNAc(b1-3)Gal(b1-4)GlcNAc(b1-3)GalNAc
In short: as §1

[13] = target: Neu5Ac(a2-6)Gal(b1-4)GlcNAc(b1-3)Gal(b1-4)GlcNAc(b1-3)[Neu5Ac(a2-6)Gal(b1-4)GlcNAc(b1-3)Gal(b1-4)GlcNAc(b1-6)]GalNAc
In short: as §1

[14] = target: Neu5Ac(a2-6)Gal(b1-4)GlcNAc(b1-3)Gal(b1-4)GlcNAc(b1-6)[Gal(b1-3)]GalNAc
In short: as §1

[15] = target: Neu5Ac(a2-6)Gal(b1-4)GlcNAc(b1-3)Gal(b1-4)[Fuc(a1-3)]GlcNAc(b1-3)Gal(b1-4)[Fuc(a1-3)]GlcNAc
In short: as §1

[16] = target: Neu5Ac(a2-6)Gal(b1-4)GlcNAc(b1-3)GalNAc
In short: as §1

[17] = target: Neu5Ac(a2-6)Gal(b1-4)GlcNAc(b1-3)[Neu5Ac(a2-6)Gal(b1-4)GlcNAc(b1-6)]GalNAc
In short: as §1

[18] = target: Neu5Ac(a2-6)Gal(b1-4)GlcNAc(b1-6)GalNAc
In short: as §1

[19] = target: Neu5Ac(a2-6)Gal(b1-4)GlcNAc(b1-6)[Gal(b1-3)GlcNAc(b1-3)]Gal(b1-4)Glc
In short: as §1

[20] = target: Neu5Ac(a2-6)Gal(b1-4)GlcNAc(b1-6)[Gal(b1-3)]GalNAc
In short: as §1

[21] = target: Neu5Ac(a2-6)Gal(b1-4)GlcNAc6S
In short: as §1

Neu5Ac(a2-6)GalNAc = target: Neu5Ac(a2-6)GalNAc
In short: as §1

[22] = target: Neu5Ac(a2-6)GalNAc(b1-4)GlcNAc
In short: as §1

[23] = target: Neu5Ac(a2-6)GalNAc(b1-4)GlcNAc6S
In short: as §1

[24] = target: Neu5Ac(a2-6)GlcNAc(b1-4)GlcNAc
In short: as §1

[25] = target: Neu5Ac(a2-6)GlcNAc(b1-4)GlcNAc(b1-4)GlcNAc
In short: as §1

Neu5Ac(a2-8)Neu5Ac = target: Neu5Ac(a2-8)Neu5Ac
In short: as §1

[26] = target: Neu5Ac(a2-8)Neu5Ac(a2-3)Gal(b1-3)GalNAc(b1-4)[Neu5Ac(a2-3)]Gal(b1-4)Glc
In short: as §1

[27] = target: Neu5Ac(a2-8)Neu5Ac(a2-3)Gal(b1-3)GalNAc(b1-4)[Neu5Ac(a2-8)Neu5Ac(a2-3)]Gal(b1-4)Glc
In short: as §1

[28] = target: Neu5Ac(a2-8)Neu5Ac(a2-3)Gal(b1-4)Glc
In short: as §1

B1: Siglec-F (Mus musculus), Q920G3 (protein)
chain: MRWAWLLPLLWAGCLATDGYSLSVTGSVTVQEGLCVFVACQVQYPNSKGPVFGYWFREGANIFSGSPVATNDPQRSVLKEAQGRFYLMGKENSHNCSLDIRDAQKIDTGTYFFRLDGSVKYSFQKSMLSVLVIALTEVPNIQVTSTLVSGNSTKLLCSVPWACEQGTPPIFSWMSSALTSLGHRTTLSSELNLTPRPQDNGTNLTCQVNLPGTGVTVERTQQLSVIYAPQKMTIRVSWGDDTGTKVLQSGASLQIQEGESLSLVCMADSNPPAVLSWERPTQKPFQLSTPAELQLPRAELEDQGKYICQAQNSQGAQTASVSLSIRSLLQLLGPSCSFEGQGLHCSCSSRAWPAPSLRWRLGEGVLEGNSSNGSFTVKSSSAGQWANSSLILSMEFSSNHRLSCEAWSDNRVQRATILLVSGPKVSQAGKSETSRGTVLGAIWGAGLMALLAVCLCLIFFTVKVLRKKSALKVAATKGNHLAKNPASTINSASITSSNIALGYPIQGHLNEPGSQTQKEQPPLATVPDTQKDEPELHYASLSFQGPMPPKPQNTEAMKSVYTEIKIHKC
glycan array binding signal (z-score) [1]: 0.026
glycan array binding signal (z-score) [2]: -0.085
glycan array binding signal (z-score) [3]: -0.131
glycan array binding signal (z-score) [4]: -0.078
glycan array binding signal (z-score) [5]: -0.097
glycan array binding signal (z-score) [6]: -0.145
glycan array binding signal (z-score) [7]: -0.122
glycan array binding signal (z-score) [8]: -0.116
glycan array binding signal (z-score) [9]: -0.145
glycan array binding signal (z-score) [10]: -0.125
glycan array binding signal (z-score) [11]: 0.301
glycan array binding signal (z-score) [12]: -0.147
glycan array binding signal (z-score) [13]: 0.011
glycan array binding signal (z-score) [14]: -0.102
glycan array binding signal (z-score) [15]: -0.103
glycan array binding signal (z-score) [16]: -0.092
glycan array binding signal (z-score) [17]: -0.123
glycan array binding signal (z-score) [18]: -0.072
glycan array binding signal (z-score) [19]: -0.064
glycan array binding signal (z-score) [20]: -0.156
glycan array binding signal (z-score) [21]: -0.11
glycan array binding signal (z-score) (Neu5Ac(a2-6)GalNAc): -0.113
glycan array binding signal (z-score) [22]: -0.121
glycan array binding signal (z-score) [23]: -0.139
glycan array binding signal (z-score) [24]: -0.127
glycan array binding signal (z-score) [25]: -0.123
glycan array binding signal (z-score) (Neu5Ac(a2-8)Neu5Ac): -0.115
glycan array binding signal (z-score) [26]: -0.154
glycan array binding signal (z-score) [27]: -0.022
glycan array binding signal (z-score) [28]: -0.13
